# Source: PubChem BioAssay AID588591 (National Center for Advancing Translational Sciences (NCATS), 2011)
# The whole screen tested about 390,000 compounds, of which about 4,700 (1.2%) were called active. About 4% were inconclusive and are not listed. The call rests on the fitted dose curve; in most records, active means well fitted inhibition curve with a large enough effect; inconclusive means small, poorly fitted or top-dose-only effect, or another doubt; inactive means no such curve, though single readings can be large or run the other way. The list shows a part of the results, in another mix than the full data.
# Biological target: DNA polymerase eta (Homo sapiens) (UniProt Q9Y253)
# Chain of UniProt Q9Y253 (Q9Y253 whole entry, looked up): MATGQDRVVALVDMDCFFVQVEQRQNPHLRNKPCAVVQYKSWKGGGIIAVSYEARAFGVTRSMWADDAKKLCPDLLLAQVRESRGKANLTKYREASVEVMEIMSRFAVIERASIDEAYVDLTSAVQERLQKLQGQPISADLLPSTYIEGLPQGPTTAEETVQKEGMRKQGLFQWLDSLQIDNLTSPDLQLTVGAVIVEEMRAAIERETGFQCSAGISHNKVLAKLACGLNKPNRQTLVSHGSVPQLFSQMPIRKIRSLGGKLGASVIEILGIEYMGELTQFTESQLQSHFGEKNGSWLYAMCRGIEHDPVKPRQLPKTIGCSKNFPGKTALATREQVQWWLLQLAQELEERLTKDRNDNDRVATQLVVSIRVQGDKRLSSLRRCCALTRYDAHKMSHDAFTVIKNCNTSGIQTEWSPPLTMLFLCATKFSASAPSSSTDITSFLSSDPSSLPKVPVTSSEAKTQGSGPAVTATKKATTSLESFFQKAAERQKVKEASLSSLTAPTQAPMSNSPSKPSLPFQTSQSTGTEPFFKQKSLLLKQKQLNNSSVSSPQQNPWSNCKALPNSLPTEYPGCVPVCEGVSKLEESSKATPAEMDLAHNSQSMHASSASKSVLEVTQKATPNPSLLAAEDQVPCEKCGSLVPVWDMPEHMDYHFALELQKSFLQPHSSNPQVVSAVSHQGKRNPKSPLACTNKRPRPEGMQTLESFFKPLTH
# Experiment: qHTS for Inhibitors of Polymerase Eta
# Details: recombinant Pol eta, fluorescent DNA replication assay; series mostly up to 114 µM; activity change, negative = inhibition: at the top concentration
# Procedure, shortened: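 Fluorescent replication assay: 50 nM final substrate added after a 15 min room-temperature compound preincubation with 10 nM enzyme. Signal taken at 0 min and again at 10 min.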
# On the % scale 0 is the no-effect control and ±100 the full control effect; potency means the concentration at half of the fitted maximal effect.
Compound,"activity change, negative = inhibition",Potency
CN(C[C@H](Cc1ccccc1)N(C[C@@H](Cc1cccc2ccccc12)N(CCc1ccccc1)N=O)N=O)N=O,inactive: -2.91%,
C=CCC[C@@H](Cc1ccc(F)cc1)C(=O)OC[C@@H](Cc1c[nH]c2ccccc12)NC(=O)[C@H](CC=C)CC(=O)N(CCO)Cc1ccccc1,inactive: -36%,
Cc1ccc(C)c(NC(=O)Cn2cnc3c(oc4ccccc43)c2=O)c1,inactive: -24.2%,
CCCCCC(=O)N1C[C@@H](O)[C@H](n2cc(COC(=O)c3ccccc3)nn2)C[C@@H]1c1ccc(C)cc1,inactive: -3.23%,
Cc1ccccc1-n1c(-c2ccc(Br)o2)n[nH]c1=S,inactive: 29.6%,
C=C(C)C(=O)Nc1cccc(C2=NOC3(C2)C[C@@H](C(N)=O)N(C(=O)c2cc([N+](=O)[O-])cc([N+](=O)[O-])c2)C3)c1 (stereo partly specified),,active: 20 µM
O=c1c(Cl)c(Cl)cnn1Cc1nnc(-c2ccccc2Br)o1,,active: 79.4 µM
CCCCn1c(SCC(=O)c2ccc(OC)cc2OC)nc2cc(S(N)(=O)=O)ccc21,,active: 25.1 µM
O=C1ON=C(c2ccccc2)/C1=C\c1ccco1,inactive: -4.01%,
O=C(N/N=C/c1ccc(-c2ccc(Cl)c(C(=O)O)c2)o1)c1cc2c(ccc3ccccc32)o1,,active: 11.2 µM
CCOc1ccc(NC(=O)C2CCN(S(=O)(=O)c3c(C)noc3/C=C/c3ccco3)CC2)cc1,inactive: 19.7%,
CCOc1ncccc1C(=O)OCC(=O)Nc1ccc(C(N)=O)cc1,inactive: 38.1%,
Nc1nc(=S)c2ncn([C@@H]3O[C@H](CO)[C@@H](O)[C@H]3O)c2[nH]1,inactive: -3.02%,
Cc1cc(C)c(NC(=O)Cn2c(=O)c3cccn3c3ccccc32)c(C)c1,inactive: -20.2%,
O=c1cc(-c2ccc(O)cc2)oc2cc(O)cc(O)c12,inactive: -21%,
CC(CCc1ccccc1)NCC#N (stereo unspecified),inactive: 34.8%,
C=CC[C@@H](CC(=O)N(CCO)Cc1ccccc1)C(=O)N[C@@H](COC(=O)[C@@H](CC=C)CC(=O)OC(C)(C)C)Cc1c[nH]c2ccccc12,inactive: -21.2%,
COc1ccccc1NC(=O)Cn1c(O)c(N=NC(=O)c2ccccc2O)c2ccccc21,,active: 50.1 µM
CCOC(=O)[C@@H]1[C@H]2COc3ccccc3[C@H]2N2C(=O)N(c3ccc(C(F)(F)F)cc3)C(=O)[C@]12C,inactive: -24.2%,
C=CCC[C@@H](Cc1ccc(F)cc1)C(=O)OC[C@@H](C)NC(=O)[C@H](CC=C)CC(=O)N(CCO)Cc1ccccc1,inactive: -23.1%,
O=C(COC(=O)Cc1cccc(C(F)(F)F)c1)NCc1ccco1,,active: 5.01 µM

Compound,"activity change, negative = inhibition",Potency
Oc1ccc(/C=N/NC2=NCCCCC2)cc1,inactive: 15.4%,
COc1cc2nc(Nc3cccc(F)c3)nc(N)c2cc1OC,inactive: -15%,
COc1ccc(OC)c(N2C(=O)[C@@H]3C(c4ccccc4Cl)=NO[C@@H]3C2=O)c1,,active: 1.26 µM
CCOc1ccccc1/C=c1\sc2nc(-c3ccco3)nn2c1=O,,active: 7.94 µM
O=C(NCCc1ccc(F)cc1)c1ccc(Cl)c(S(=O)(=O)N2CCOCC2)c1,,active: 44.7 µM
COc1cc(/C=C2\SC(=O)NC2=O)ccc1Oc1ccc([N+](=O)[O-])cc1[N+](=O)[O-],,active: 50.1 µM
COc1ccc(/C=C/C(=O)NC(=S)Nc2ccc(Br)cn2)cc1,inactive: 16.7%,
Cc1ccc(C(=O)Nc2cccc(C(F)(F)F)c2)cc1NC(=O)c1nccnc1N,inactive: -7.63%,
CCSc1nnc(NC(=O)C2CC=CCC2C(=O)O)s1 (stereo unspecified),,active: 20 µM
Cc1cc(C(=O)NCc2cc(C(=O)O)co2)co1,,active: 20 µM
O=C1C=C(Nc2ccccc2O)c2ccccc2C1=O,,active: 25.1 µM
Nc1ccc2ccc(O)cc2c1,,active: 50.1 µM
O=C(NC(=S)Nc1ccc(Cl)c(C(=O)O)c1)c1cccc(COc2ccccc2)c1,,active: 79.4 µM
Cc1[nH]c2ccccc2c1C(=O)/C=C\c1ccccc1Cl,inactive: -9.78%,
COc1ccc(CCN2CC(C(=O)NCCc3ccc(C)cc3)CC2=O)cc1OC (stereo unspecified),inactive: -0.952%,
CCc1cc(C(=O)Nc2nnc(C3CC3)s2)sc1C,,active: 50.1 µM
O=C1O/C(=C\c2ccccc2)c2ccccc21,inactive: 2.41%,
O=C(C1CCCN(S(=O)(=O)c2cccc3nsnc23)C1)N1CCN(c2ccccn2)CC1 (stereo unspecified),inactive: -10.7%,
CC(=O)C[C@@H](O)CC(=O)[C@@H]1OC(=O)[C@H](C)C/C=C\Cc2ccccc21,inactive: -0.0966%,
Cc1ccc(C(=O)Nc2ccc(O)c(C(=O)O)c2)o1,,active: 14.1 µM
C=CCc1cccc2cc(C(=O)Nc3ccc(CC(=O)O)cc3)c(=O)oc12,,active: 35.5 µM

Compound,"activity change, negative = inhibition",Potency
CC(=O)Nc1cc(NC(C)=O)cc(-c2nc3ccccc3[nH]2)c1,,inactive
COc1ccc(Cn2c(=O)[nH]c3cc(C(=O)NC4CCCC4)ccc3c2=O)cc1,inactive: 35.3%,
Cc1cc(=O)c2cc(Br)ccc2n1CC(=O)NCc1ccccc1,inactive: 16.9%,
CSc1cccc(NC(=O)CN(c2ccccc2)S(=O)(=O)N(C)C)c1,inactive: -5.83%,
COc1ccc(CCNC(=O)c2nnc(Cc3ccc(Cl)cc3)o2)cc1OC,inactive: -11.3%,
O=Nc1c(-c2c(O)[nH]c3cc(Br)ccc23)[nH]c2ccccc12,inactive: -17.6%,
COc1ccc(NC(=O)CSc2nnc(-c3cccnc3)n2C)cc1,inactive: 30.1%,
CC(=O)Nc1ccc(S(=O)(=O)N2CCN(CCN3CCOCC3)CC2)cc1Cl,inactive: 18.4%,
CCc1cc(C(=O)N(CC(C)C)c2c(N)n(Cc3ccccc3)c(=O)[nH]c2=O)sc1C,inactive: 15.7%,
COc1ccc(/C=C(\NC(=O)c2ccccc2)C(=O)NC2CCCCC2)cc1,inactive: 25.8%,
CN1CCS/C1=C\C=C1/SC(=S)N(CC(=O)O)C1=O,inactive: -2.13%,
O=C1c2ccccc2C(=O)N1c1ncn[nH]1,inactive: 30.8%,
COC(=O)/C=C1/SC(=NC(=O)c2cccc([N+](=O)[O-])c2)NC1=O,inactive: -15.5%,
COc1ccc(C(CNC(=O)COc2cc(C)c(Cl)c(C)c2)N2CCCCC2)cc1 (stereo unspecified),inactive: -28.3%,
N#C/C(=C\c1ccc(N2CCCC2)c([N+](=O)[O-])c1)c1nc2ccccc2[nH]1,inactive: 10.6%,
CCOc1ccc(C(=O)N/N=C/c2cc([N+](=O)[O-])cs2)cc1,inactive: 32.6%,
Cc1c(/C(O)=C2\C(=O)C(=O)N(CCCN(C)C)C2c2cccs2)cnn1-c1ccccc1 (stereo unspecified),inactive: 17.5%,
C=CC[C@@H](CC(=O)N[C@H](CO)Cc1ccccc1)C(=O)N[C@H](COC(=O)[C@@H](CC=C)Cc1ccc(F)cc1)C(C)(C)C,inactive: -21.1%,
Nc1cc(-c2nn[nH]n2)ccc1F,,active: 11.2 µM
